This note sets out measurements from PubChem BioAssay AID1346428 (National Center for Advancing Translational Sciences (NCATS), 2018).

Values joined by “and” are separate entries in the source; they are usually repeats but may differ in a detail not shown here. Identical values can stand only once. Screen size: about 48,000 compounds; about 1,200 (2.5%) were called active. Not shown: some 2% with an inconclusive outcome.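 The calls were made as follows: active = activation of at least 60% and not above a set upper limit (about 1 call in 100 departs from these limits); inconclusive = activation of 40% to 60%, or above that upper limit; inactive = activation under 40%.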 Some of the results follow.

The target of the test is Probable G-protein coupled receptor 32 (Homo sapiens) (UniProt O75388). The experiment in a line: qHTS for Agonists of Human Resolvin D1 Receptor DRV1. Also: 0% is about no effect. The following applies: CHO-K1 GPR32 beta-arrestin PathHunter luminescence, 90 min; at 76.9 µM; stronger effect = higher value; zero percent set by DMSO-only wells. In outline: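 Readings come from a cell-based beta-arrestin complementation format: CHO-K1 GPR32 stable cells (2,500/well) treated 90 min with compounds, then beta-Gal substrate added for 1 h before chemiluminescence imaging.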
Chain of UniProt O75388 (O75388 whole entry, looked up): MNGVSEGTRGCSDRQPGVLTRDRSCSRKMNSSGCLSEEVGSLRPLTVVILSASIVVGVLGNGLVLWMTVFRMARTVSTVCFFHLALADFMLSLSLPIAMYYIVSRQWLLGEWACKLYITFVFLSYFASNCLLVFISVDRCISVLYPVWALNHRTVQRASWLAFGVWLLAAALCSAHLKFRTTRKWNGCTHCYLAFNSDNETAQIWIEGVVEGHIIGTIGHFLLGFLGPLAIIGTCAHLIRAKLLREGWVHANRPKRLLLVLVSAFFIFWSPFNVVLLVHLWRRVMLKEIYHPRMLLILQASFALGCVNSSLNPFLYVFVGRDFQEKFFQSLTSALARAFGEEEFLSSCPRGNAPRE
Background: In qHTS, concentration-response curves come from the screen itself.
`COCCNC(=O)c1c(-c2ccccc2)c(-c2ccccc2)nn(C)c1=O`: the activation was inactive: -11.9%. Take `Cc1ccc(-n2nc3c(=O)n(CCCC(=O)NCc4ccccc4C)nc(C)c3c2C)cc1`: the activation was inactive: -1.32%. The result for `CCc1cc(C(N)=S)ccn1` reads inactive: -48.2%.

With `Cc1cccc(-c2nc3scc(CCNS(=O)(=O)c4c(C)noc4C)n3n2)c1`, the activation was inactive: -4.58%. With `Cc1ccc(F)cc1NC(=O)CCc1c(C)nn(-c2ccc(N3CCCC3)nn2)c1C` the figure was inactive: 4.31%; with `CCOC(=O)c1c(SCC(=O)Nc2nc3ccccc3s2)nc(=O)[nH]c1C`, inactive: 13.2%; with `CCC(Sc1nnc(C)n2c1cc1sccc12)C(=O)Nc1ccccc1F` (stereo not given), inactive: -33.4%.

For `CCOc1ccccc1C(=O)Nc1ccc(S(=O)(=O)Nc2onc(C)c2C)cc1`, the activation was inactive: 3.55%. With `CC(=O)c1ccc(NC(=O)Cn2cnc3nc4c(cc3c2=O)CC(C)CC4)cc1` (stereo not given) the figure was inactive: -1.12%. With `CCOc1cccc(C2c3[nH]c4ccccc4c3CCN2C(=O)c2ccccc2F)c1` (stereo not given) the figure was inactive: -30.9%; with `Cc1ccc(NC(=O)CSc2nc3ccc(NC(=O)c4cccs4)cc3s2)cc1`, inactive: 10.5%; with `CCOC(=O)c1cnc2cc(C(F)(F)F)ccc2c1N1CCN(c2cccc(Cl)c2)CC1`, inactive: -7.75%.

As for `CCOc1cc(CNC(=O)c2ccc(Cn3c(=O)c4cccn4c4cccnc43)cc2)ccc1OC`, the activation was inactive: -15.8%. The result for `Cn1nnc2c(N3CCN(c4ccccc4)CC3)ncnc21` reads inactive: -2.75%; that for `COCCn1c(SCC(=O)c2ccc(C)cc2C)nc2cc(C(=O)NC3CCCC3)ccc2c1=O`, inactive: -0.997%.

Turning to `Cc1cc2ccccc2n1CCNC(=O)c1cc(C(F)(F)F)cc(C(F)(F)F)c1`, the activation is inactive: -0.726%.

As to `CC(C)COc1ccc(C2=NC(c3ccncc3)=Nc3ccc(F)cc3N2)cc1`, the activation was inactive: -2%.

With `CC(=O)Nc1ccc(S(=O)(=O)Nc2ccc([N+](=O)[O-])cc2)cc1`, the activation was inactive: -69.7%. As to `COC(=O)[C@H]1[C@H]2C[C@@H]3c4[nH]c5cc(OC)ccc5c4CCN3C[C@H]2C[C@@H](OC(=O)/C=C/c2ccc(O)c(OC)c2)[C@@H]1OC`, the activation is inactive: -4.29%. With `CCOc1ccc(N(CC)S(=O)(=O)N2CCCC(C(=O)Nc3cc(Cl)ccc3C)C2)cc1` (stereo not given) the figure was inactive: -16.2%; with `COC(=O)c1cc(NC(=O)c2nn(C)c3c2CSc2ccccc2-3)cc(C(=O)OC)c1`, inactive: -3.15%; with `Cc1ccc(C(=O)Nc2ccc(S(=O)(=O)O)c3cc(S(=O)(=O)O)cc(S(=O)(=O)O)c23)cc1NC(=O)c1cccc(NC(=O)Nc2cccc(C(=O)Nc3cc(C(=O)Nc4ccc(S(=O)(=O)O)c5cc(S(=O)(=O)O)cc(S(=O)(=O)O)c45)ccc3C)c2)c1`, inactive: -1.91% and inactive: -14.5%. The result for `CN1CCN(C(=O)Cn2c(-c3cccs3)cc3cc(Cl)ccc32)CC1` reads inactive: -5.88%. `Cc1ccc(Cl)cc1N1CCN(C(=O)C2CCN(S(=O)(=O)c3cccc4nonc34)CC2)CC1`: the activation was inactive: -2.6%. As to `Cc1ccccc1OC(=O)CSc1nnc(-c2ccc3c(c2)OCO3)o1`, the activation was inactive: -1.08%. Turning to `CC(=O)c1c(C)oc2c(Br)cc(NS(=O)(=O)c3ccc(Br)cc3)cc12`, the activation is inactive: -0.638%.

For `O=C(c1noc2c1CCCCC2)N1CCN(c2cccc(C(F)(F)F)c2)CC1`, the activation was inactive: -12.2%.

Turning to `COc1ccccc1CNc1nc2ccc(Cl)cc2n2cnnc12`, the activation is inactive: -20.6%. Consider `CC(C)c1ccc(NC(=O)c2cc(S(=O)(=O)N3CCCCC3)cn2C)cc1`, for which the activation was inactive: 10.1%. As to `CCCCN(CC)CCCNC(=O)Cn1ncc2c3ccccc3n(Cc3ccccc3F)c2c1=O`, the activation was inactive: -17.6%. For `CCOc1ccc(-c2cc3c(=O)n(Cc4nc(-c5ccc(OC(C)C)cc5)oc4C)ccn3n2)cc1Cl`, the activation is inactive: -11%. With `CCN(CC)CCNC(=O)c1ccc(CSc2nc3ccncc3n2Cc2cccc(F)c2)cc1` the figure was inactive: 4.46%.

For `CC(C)(C)c1ccc(C(=O)N2CCC(c3nc(-c4ccc(S(=O)(=O)N5CCCC5)cc4)no3)CC2)cc1`, the activation was inactive: -4.46%.

For the molecule `Cc1ccc(-c2n[nH]c3c2C(c2cccc(O)c2)N(c2ccc(C(=O)O)cc2)C3=O)cc1` (stereo not given), the activation is inactive: -19.7%.

As for `COc1ccc(CNC(=O)C2CCCN(C(=O)N3CCOc4ccccc43)C2)cc1` (stereo not given), the activation is inactive: -7.89%. On to `COc1cc(C2SC[C@H]3C(=O)N(c4ccccc4)C(=O)N23)cc(OC)c1OC` (stereo not given in full), for which the activation is inactive: 17.1%. With `O=C(Oc1ccccc1)c1cccc(C(=O)Oc2ccccc2)c1` the figure was inactive: 17.2%; with `O=C(Cn1nc(N2CCN(c3ccccc3)CC2)ccc1=O)Nc1ccc(F)cc1F`, inactive: -9.33%; with `Cc1ccccc1-c1nc(CN2CCC(C(=O)NCCc3ccccc3)CC2)c(C)o1`, inactive: -1.91%. Consider `O=C(CCCn1c(=O)c2ccccc2n(CC(=O)Nc2cccc(C(F)(F)F)c2)c1=O)NCc1ccc2c(c1)OCO2`, for which the activation was inactive: -2.24%.

As to `CCCN(CCC)S(=O)(=O)c1ccc2c(c1)N(CC(=O)NCc1ccc(F)cc1Cl)C(=O)CS2`, the activation was inactive: -31.7%. The result for `COc1ccc(-n2nc(C(=O)N3CCCC(C)C3)c3c4ccccc4n(C)c3c2=O)cc1` (stereo not given) reads inactive: -0.167%. With `O=C(c1ccccc1)n1nc(-c2ccccc2)nc1NCc1ccc(F)cc1` the figure was inactive: -12%. With `CCc1ccc(C(=O)c2cn(CC(=O)NC3CCCCC3)c3nc(C)ccc3c2=O)cc1` the figure was inactive: 27.5%. As for `O=C(Nc1ccc(F)c(F)c1)c1cc(S(=O)(=O)NC2CCCCCC2)ccc1F`, the activation is inactive: -10.3%. For `CCOC(=O)c1cc2c(=O)n3ccccc3nc2n(C(C)C)c1=NC(=O)c1cc2ccccc2o1`, the activation was inactive: 31.9%. As for `COc1ccc(CNC(=O)CN2C(=O)COc3ccc(S(=O)(=O)Nc4ccccc4)cc32)cc1`, the activation was inactive: 4.83%. With `CCOc1ccc(N2CC(NC(=O)/C=C\c3ccc4c(c3)OCO4)CC2=O)cc1` (stereo not given) the figure was inactive: -7.14%; with `CNC(=O)c1c(NC(=O)c2ccc(S(=O)(=O)N3CCCCC3)cc2)sc2c1CCC2`, inactive: -37.3%; with `CCOC(=O)c1sc2ccccc2c1S(=O)(=O)Nc1ccc(CC)cc1`, inactive: -31.4%.
